Measurements reported in US11542275B2, “Substituted imidazolidin-2-one derivatives as PRMT5 inhibitors” (Aurigene Discovery Technologies Limited, priority 2018, dated 2023).

Key:
[1] = biological target: PRMT5/MEP50 Complex (Homo sapiens (Human), UniProt O14744); assay: PRMT5 inhibition based on TR-FRET assay; type: biochemical; settings: 32 nM PRMT5:MEP50 complex, 50 nM Histone-H4 peptide, 1 μM SAM, 90 minutes at room temperature
Description: Protein arginine methyltransferase 5 (PRMT5) is a type II arginine methyltransferase that catalyze mono- and symmetric demethylation on arginine residues of histone or non-histone proteins in presence of S-adenosylmethionine (AdoMet or SAM) a cofactor responsible for donating the methyl group. PRMT5 is reported to be overexpressed in several human cancers. To identify compounds that inhibit the PRMT5 and decrease its activity, a TR-FRET based assay has been established. Time-resolved fluorescence resonance energy transfer (TR-FRET) HTS assays are homogeneous proximity assays where the interaction of two dye-labeled binding partners is detected by the energy transfer between a donor and an acceptor dye, and the subsequent light emission by the acceptor dye. PRMT5 catalyzes Histone H4 peptide which is biotin tagged to the Lysine amino acid at carboxyl end, in presence of S-adenosyl-1-methionine (SAM) to methylate the peptide. The antibody specific to mono methylated H4 peptide (H4R3) with Ig conjugate binds to the methylated peptide, indirectly binding to the Europium lanthanide. […]
The compound dilutions were prepared as 7.5% DMSO stock solutions in assay buffer. […] The plates were then read on Victor-3 with Excitation at 340 nm and Emissions collected at 615 and 665 nm in TR-FRET protocol. […]

[2] = tested on: Z138 cells; assay: Z138 cell proliferation assay (XTT); type: cell-based; settings: Homo sapiens, Z-138, 168 h, 7 day treatment, 9-point dose response starting with 10 μM, XTT read at 465 nm
Protocol: Z138 cells were seeded in a 96-well round-bottom plate and treated with varying concentration of compound. The final DMSO concentration was maintained at 0.05%. The selected compounds of present invention were screened in a 9-point dose response format starting with 10 μM and 1/3rd serial dilution. On the 4th day, cells were spun down and media was replaced while maintaining the initial compound concentration in each well. At the end of the 7th day, cells were spun down and media was aspirated. 50 µL of XTT containing media was added to the wells. The plates were read using the M3 spectrophotometer at 465 nm. GI50 values were calculated by fitting the dose response data to sigmoidal curve fitting equation using GraphPad Prism software V7.
The compounds were screened in the above mentioned assay procedures for determining IC50 and GI50 values in inhibiting PRMT5.

Row | IC50 [1] [nM] | Structure (SMILES) | GI50 [2] [nM]
1 | 285 | O=C1N(Cc2ccc(C3CCOCC3)cn2)CCN1C[C@@H](O)CNC1Cc2ccccc2C1 [Compound 90, (S)-1-(3-((2,3-dihydro-1H-inden-2-yl)amino)-2-hydroxypropyl)-3-((5-(tetrahydro-2H-pyran-4-yl)pyridin-2-yl)methyl)imidazolidin-2-one] | –
2 | – | N#CC1CCN(c2cnc(CN3CCN(C[C@H](O)CN4CCc5ccccc5C4)C3=O)cn2)CC1 [Compound 10, (R)-1-(5-((3-(3-(3,4-dihydroisoquinolin-2(1H)-yl)-2-hydroxypropyl)-2-oxoimidazolidin-1-yl)methyl)pyrazin-2-yl)piperidine-4-carbonitrile] | 100 to 300
3 | – | O=C1N(Cc2cnc(-c3cccnc3)cn2)CCN1C[C@H](O)CN1CCc2ccccc2C1 [Compound 37, (R)-1-(3-(3,4-dihydroisoquinolin-2(1H)-yl)-2-hydroxypropyl)-3-((5-(pyridin-3-yl)pyrazin-2-yl)methyl)imidazolidin-2-one] | > 300
4 | – | CN(C)S(=O)(=O)C1CCN(c2ccc(CN3CCN(C[C@H](O)CN4CCc5ccccc5C4)C3=O)nc2)CC1 [Compound 15, (R)-1-(6-((3-(3-(3,4-dihydroisoquinolin-2(1H)-yl)-2-hydroxypropyl)-2-oxoimidazolidin-1-yl)methyl)pyridin-3-yl)-N,N-dimethylpiperidine-4-sulfonamide] | 100 to 300
